Measured values: paper PMC4336329 (PLoS ONE, 2015)
The whole screen tested about 310,000 compounds, of which about 2,200 (0.71%) showed an effect of 50% or more. The effect is printed as a negative number. The list shows a part of the results.

Each molecule was assayed against human ether-à-go-go-related gene (hERG) potassium channel (human, UniProt Q12809) (assay: primary screen, population patch clamp on CHO cells stably expressing hERG).
Chain of human ether-à-go-go-related gene (hERG) potassium channel (Q12809 whole entry, looked up): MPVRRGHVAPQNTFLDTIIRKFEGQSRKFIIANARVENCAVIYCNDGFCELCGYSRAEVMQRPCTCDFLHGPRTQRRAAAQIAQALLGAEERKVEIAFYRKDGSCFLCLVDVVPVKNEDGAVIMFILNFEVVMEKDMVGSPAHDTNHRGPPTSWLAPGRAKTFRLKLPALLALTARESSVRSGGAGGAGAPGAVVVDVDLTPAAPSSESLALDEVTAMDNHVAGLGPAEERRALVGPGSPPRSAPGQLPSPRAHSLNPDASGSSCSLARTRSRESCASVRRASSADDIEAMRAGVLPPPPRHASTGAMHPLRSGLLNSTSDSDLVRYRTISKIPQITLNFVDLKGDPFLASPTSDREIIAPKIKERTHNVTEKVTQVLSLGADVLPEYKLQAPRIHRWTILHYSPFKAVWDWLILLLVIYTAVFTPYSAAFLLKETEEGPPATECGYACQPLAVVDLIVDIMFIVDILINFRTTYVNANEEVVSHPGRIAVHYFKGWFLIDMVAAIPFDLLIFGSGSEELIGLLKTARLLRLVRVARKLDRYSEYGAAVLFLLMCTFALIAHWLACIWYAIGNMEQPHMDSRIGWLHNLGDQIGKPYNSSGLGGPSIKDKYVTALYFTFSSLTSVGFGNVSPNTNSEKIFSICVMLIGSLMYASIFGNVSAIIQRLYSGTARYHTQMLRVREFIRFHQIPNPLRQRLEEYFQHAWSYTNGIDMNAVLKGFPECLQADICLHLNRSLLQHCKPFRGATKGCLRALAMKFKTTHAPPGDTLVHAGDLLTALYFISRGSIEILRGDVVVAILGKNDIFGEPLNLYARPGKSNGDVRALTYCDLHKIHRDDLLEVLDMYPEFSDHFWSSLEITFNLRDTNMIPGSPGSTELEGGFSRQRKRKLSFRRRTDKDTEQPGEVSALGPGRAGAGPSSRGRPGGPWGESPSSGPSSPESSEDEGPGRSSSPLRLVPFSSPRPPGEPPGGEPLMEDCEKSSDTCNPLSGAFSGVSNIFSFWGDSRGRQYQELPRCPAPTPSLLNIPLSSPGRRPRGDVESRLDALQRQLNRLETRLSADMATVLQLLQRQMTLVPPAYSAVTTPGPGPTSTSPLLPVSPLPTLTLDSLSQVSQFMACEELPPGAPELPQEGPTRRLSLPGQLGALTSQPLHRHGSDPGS

Row | SMILES | hERG current change (%, negative = inhibition) at 1uM [%]
1 | Cc1cccc(NC(=O)C2C(C(=O)O)C3C=CC2C32CC2)c1C (stereo not drawn) | 7.58
2 | COc1cc(-c2cc(C(=O)Nc3ccc(N4CCOCC4)cc3)c3ccccc3n2)cc(OC)c1OC | 6.59
3 | CC(C)NC(=O)c1onc(CSc2ccc(Cl)cc2)c1C(=O)NC(C)C | 9.83
4 | CC(=O)c1ccc(N2CCN(C(=O)c3cn(Cc4ccccc4)nc3-c3cccnc3)CC2)c(F)c1 | -19.1
5 | CCOC(=O)N1CCN(C(=O)c2ccccc2-c2ccccc2)CC1 | 21
6 | COc1ccc(C(=O)CSc2cc(C)nc(SCC(=O)c3ccc(C)cc3)n2)cc1 | 10.9
7 | CC(C)(C)c1ccc(/C=C/C(=O)O)s1 | 9.11
8 | Oc1ccc(/C=C/c2ccnc3ccccc23)cc1 | 13.1
9 | COc1ccc(S(=O)(=O)N2CCC(C(=O)NC3CC3)CC2)cc1 | 1.71
10 | Cc1ccc(C(=O)OCC(=O)Nc2ccccc2)cc1S(=O)(=O)N1CCCCC1 | 14.9
11 | COCCCN(C(C)=O)c1nc(-c2ccc(OC)cc2)cs1 | -2.34
12 | CCn1c(=O)n(CC)c2cc(S(=O)(=O)N3CCCCC3)c(C)cc21 | 6.51
13 | N#CC(=C=[N-])c1nc2ccccc2nc1-[n+]1cccc(NC(=O)c2ccc(F)cc2)c1 | 15.7
14 | Clc1ccc2oc(SCc3cccnc3)nc2c1 | 12.7
15 | COc1cccc(NC(=O)C(NCC(C)(C)CN(C)C)c2ccccc2)c1.O=C(O)C(=O)O (stereo not drawn) | -12.7
16 | Cc1ccc(C(=O)N2CCN(c3ccccn3)CC2)cc1C | 2.78
17 | O=C(O)C1C2CCC(O2)C1C(=O)Nc1ccc(Br)cc1F (stereo not drawn) | 13.5
18 | CC(=O)Nc1ccc(S(=O)(=O)N2CN(c3ccc(C)cc3)c3nc4ccccc4nc32)cc1 | 15.2
19 | Cc1ccc(S(=O)(=O)N(C)CC(O)Cn2c3ccccc3c3ccccc32)cc1 (stereo not drawn) | 12.9
20 | CCc1ccc(N2CSC3=C(C#N)C(c4cccs4)CC(=O)N3C2)cc1 (stereo not drawn) | 5.06
21 | C=CCn1cc(-c2ccc(Cl)cc2)cc(C#N)c1=O | 11.1

Row | SMILES | hERG current change (%, negative = inhibition) at 1uM [%]
22 | CCS(=O)(=O)N1CCN(S(=O)(=O)c2ccc(F)cc2)CC1 | 1.1
23 | CCN(CC(=O)NCc1cccs1)C(=O)COc1cccc(C(F)(F)F)c1 | -7.5
24 | O=C(COc1ccc(/C=N/NC(=O)c2ccncc2)cc1)Nc1ccc([N+](=O)[O-])cc1 | -2.23
25 | CN(CC(=O)Nc1ccccc1Cl)C(=O)c1ccc(-c2cccc(C(F)(F)F)c2)o1 | 6.73
26 | COc1ccc(C2C(C#N)=C(N)N(N(C)C)C3=C2C(=O)CC(C)(C)C3)cc1OC (stereo not drawn) | 6.85
27 | COc1ccccc1C(=O)NC(=S)Nc1ccccc1N1CCCC1 | 9.11
28 | CCC(=O)N1N=C2C3CCN(CC3)C2C1c1ccc(C)cc1 (stereo not drawn) | 12.1
29 | COc1cccc(C(=O)N/N=C/c2ccc(Oc3ccc([N+](=O)[O-])cn3)c(OC)c2)c1 | 2.86
30 | Cc1ccc(-c2nn(-c3ccccc3)cc2/C=N/NS(=O)(=O)c2ccccc2)cc1 | 11.4
31 | CCCCSc1nc(C)cc(SCC(=O)N/N=C/c2cccc(OC)c2O)n1 | 4.3
32 | CCn1c(=O)c2c(O)cc(=O)oc2c2ccccc21 | 17.1
33 | COc1ccc(OC)c(N(CC(=O)N2CCCC2)S(=O)(=O)c2ccc(C)cc2)c1 | 16.4
34 | Cc1nc(Nc2ccc3c(c2)OCCO3)c2c(C)c(C)sc2n1 | -8.61
35 | COc1cc(NC(=O)Cc2cccs2)ccc1-n1cnnn1 | 15.8
36 | O=C(CNCc1cccc(Cl)c1)N1CCc2ccccc2C1 | 10.3
37 | Cc1cc(-c2ccco2)n(CC(=O)O)n1 | 6.85
38 | Nc1ccc(C(=O)N/N=C/c2c[nH]c3ccccc23)cc1 | 6.84
39 | COCCNC(=O)c1ccccc1NC(=O)CN(c1ccc2c(c1)OCO2)S(C)(=O)=O | -3.04
40 | CC(=O)Nc1ccc(S(=O)(=O)N2CCN(c3cccc(C)c3C)CC2)cc1 | 11.2
41 | CCOC(=O)C1(Cc2cccc(Cl)c2)CCCN(C(=O)c2cc(CC)on2)C1 (stereo not drawn) | 18.6
42 | COc1cccc(NC(=O)c2cc(-c3ccc(C)o3)nc3ccccc23)c1 | 10.1
